Experimental data: US20190194347A1, “ANTIBODIES FOR EPIDERMAL GROWTH FACTOR RECEPTOR 3 (HER3)” (NOVARTIS AG, priority 2010, published 2019)

System: Akt (S473) phosphorylation
Assay: Phospho-Akt (S473) in vitro cell assay, MCF7
Type: cell-based, human
Conditions: extent of inhibition, MCF7 cells
Protocol: Sub-confluent SK-Br-3 and BT-474 cells grown in complete media were harvested with accutase (PAA Laboratories) and resuspended in the appropriate growth media at a final concentration of 5×10^5 cells/mL. 100 μL of cell suspension was then added to each well of a 96-well flat bottomed plate (Nunc) to yield a final density of 5×10^4 cells/well. All plates were then incubated overnight at 37° C. prior to treatment with the appropriate concentration of HER3 antibodies (diluted in the appropriate media) for 80 minutes at 37° C. All media was gently aspirated and the cells washed with ice-cold PBS containing 1 mM CaCl2 and 0.5 mM MgCl2 (Gibco). The cells were lysed by adding 50 μL ice-cold lysis buffer (20 mM Tris (pH8.0)/137 mM NaCl/10% Glycerol/2 mM EDTA/1% NP-40/1 mM sodium orthovanadate/Aprotinin (10 μg/mL)/Leupeptin (10 μg/mL)) and incubated on ice with shaking for 30 minutes. Lysates were then collected and spun at 1800 g for 15 minutes at 4° C. to remove cell debris. […] Phosphorylated Akt was detected using 20 μL of SULFO-TAG anti-phospho-Akt (S473) antibody (Mesoscale Discovery) diluted 50-fold in 1% BSA/1× Tris/0.1% Tween-20 by incubating with shaking at room temperature for 2 hours. The wells were washed four times with 1× Tris/0.1% Tween-20 before adding 20 μL of Read buffer T with surfactant (Mesoscale Discovery) and the signal quantified using a Mesoscale Sector Imager. […]

Molecule | MCF7 pAkt % inhibition [%]
09825 (antibody) heavy: QVQLVESGGGLVQPGGSLRLSCAASGFTFSSYAMSWVRQAPGKGLEWVSAINSQGKSTYYADSVKGRFTISRDNSKNTLYLQMNSLRAEDTAVYYCARWGDEGFDIWGQGTLVTVSSASTKGPSVFPLAPSSKSTSGGTAALGCLVKDYFPEPVTVSWNSGALTSGVHTFPAVLQSSGLYSLSSVVTVPSSSLGTQTYICNVNHKPSNTKVDKRV[human IgG1 Fc not given here] light: DIQMTQSPSSLSASVGDRVTITCRASQGISNWLAWYQQKPGKAPKLLIYGASSLQSGVPSRFSGSGSGTDFTLTISSLQPEDFAVYYCQQYSSFPTTFGQGTKVEIKRTVAAPSVFIFPPSDEQLKSGTASVVCLLNNFYPREAKVQWKVDNALQSGNSQESVTEQDSKDSTYSLSSTLTLSKADYEKHKVYACEVTHQGLSSPVTKSFNRGEC | 79
10703 (antibody) heavy: EVQLLESGGGLVQPGGSLRLSCAASGFTFSSYAMSWVRQAPGKGLEWVSAINSQGKSTYYADSVKGRFTISRDNSKNTLYLQMNSLRAEDTAVYYCARWGDEGFDIWGQGTLVTVSSASTKGPSVFPLAPSSKSTSGGTAALGCLVKDYFPEPVTVSWNSGALTSGVHTFPAVLQSSGLYSLSSVVTVPSSSLGTQTYICNVNHKPSNTKVDKRV[human IgG1 Fc not given here] light: DIQMTQSPSSLSASVGDRVTITCRASQGISNWLAWYQQKPGKAPKLLIYGASSLQSGVPSRFSGSGSGTDFTLTISSLQPEDFATYYCQQYSSFPTTFGQGTKVEIKRTVAAPSVFIFPPSDEQLKSGTASVVCLLNNFYPREAKVQWKVDNALQSGNSQESVTEQDSKDSTYSLSSTLTLSKADYEKHKVYACEVTHQGLSSPVTKSFNRGEC | 79
